The source gives no read counts; variants with many changes may rest on few reads.
B1: CPEB3 Ribozyme (parent)
chain: UAACAGGGGGCCACAGCAGAAGCGUUCACGUCGCAGCCCCUGUCAGAUUCUGGUGAAUCUGCGAAUUCUGCUGUAUAUCUC

Variants of: B1
Experiment: self-cleavage, relative activity (ratio to wild type); higher = more cleavage; in vitro, sequencing
Outline: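 Libraries of CPEB3 self-cleaving ribozyme mutants came from rounds of error-prone PCR and carried barcodes, which DNA sequencing matched to variants. In vitro transcription used T7 RNA polymerase at 37°C for 5 hours, with a further 15 min in DNase I before EDTA stopped the reaction; the ribozymes cleaved during both steps. The RNA was reverse transcribed with template switching and sequenced on Illumina. Relative activity is the cleaved/total read fraction of a variant divided by that of the unmutated ribozyme, averaged over three batches with at least 5 reads.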
With UAACAGGGGGCCACAGCAGAAGCGUUCACGUCGCAGCCCCAGUCAGAAUCUGGUGAAUCUGCGUAUUCUGCAGUAUAUCUC [U41A U48A A64U U72A] the self-cleavage was 0.06.
For UAACAGGGGGCCACAGCAGAAGCGUUCACGUCGCAGCCCCAGUCAGAAUCUGGCGAGUCUGCGAAUUCAGCUGCAUAUCUC [U41A U48A U54C A57G U69A U74C], the self-cleavage was 0.04.
UAACAGGGGGCCACAGCAGAAGCGUUCACGUCGCAGCCCCAGUCAGACUCUGGUAAAUCUGCGAACUCUGCUGUAUAUCUC [U41A U48C G55A U66C] gave a self-cleavage of 0.11.
With UAACAGGGGGCCACAGCAGAAGCGUUCACGUCGCAGCCCCAGUCAGACUCUGGUGAAUCUGCGAAUUCUUCUGUAUAUCUC [U41A U48C G70U] the self-cleavage was 0.22.
For UAACAGGGGGCCACAGCAGAAGCGUUCACGUCGCAGCCCCAGUCAGACUCAGGUGAAUCUGCGAAUUCUGCUGGAUAACUC [U41A U48C U51A U74G U78A], the self-cleavage was 0.08.
For UAACAGGGGGCCACAGCAGAAGCGUUCACGUCGCAGCCCCAGUCAGACUCCGGUGAAUCUGCGUAUUCUGCGGUAUAUCUC [U41A U48C U51C A64U U72G], the self-cleavage was 0.16.
In the case of UAACAGGGGGCCACAGCAGAAGCGUUCACGUCGCAGCCCCAGUCAGACUCCGGUAAAUCUGCGAAUUCUGCUGUAUAUCUC [U41A U48C U51C G55A], the self-cleavage is reported as 0.09.
UAACAGGGGGCCACAGCAGAAGCGUUCACGUCGCAGCCCCAGUCAGACUCUGGCGAAUCUGCGAAUUCUGCUGUAUAUCUC [U41A U48C U54C] gave a self-cleavage of 0.41.
In the case of UAACAGGGGGCCACAGCAGAAGCGUUCACGUCGCAGCCCCAGUCAGACUCUGGUGAAACGGCGAAUUCUGCUGUAUAUCUC [U41A U48C U58A U60G], the self-cleavage is reported as 0.15.
UAACAGGGGGCCACAGCAGAAGCGUUCACGUCGCAGCCCCAGUCAGACUCUGGUGAAUCUGCGAAUUCGGCUGUAUAUCUC [U41A U48C U69G] gave a self-cleavage of 0.12.
Work on UAACAGGGGGCCACAGCAGAAGCGUUCACGUCGCAGCCCCAGUCAGAUACUGGUGAAUCUGCGGAUUCUGCAGUAUAACUC [U41A U49A A64G U72A U78A] yielded a self-cleavage of 0.14.
With UAACAGGGGGCCACAGCAGAAGCGUUCACGUCGCAGCCCCAGUCAGAUACUGGCGGAUCUGCGUAUUCUGUUGUAUACCUC [U41A U49A U54C A56G A64U C71U U78C] the self-cleavage was 0.16.
In the case of UAACAGGGGGCCACAGCAGAAGCGUUCACGUCGCAGCCCCAGUCAGAUACUGGCGAAUCUGCGAAUUCUGCUGUAUACCUC [U41A U49A U54C U78C], the self-cleavage is reported as 0.16.
Work on UAACAGGGGGCCACAGCAGAAGCGUUCACGUCGCAGCCCCAGUCAGAUACUGGUGAAUCUGCGAAUACUGCCGUAUACCUC [U41A U49A U67A U72C U78C] yielded a self-cleavage of 0.08.
For UAACAGGGGGCCACAGCAGAAGCGUUCACGUCGCAGCCCCAGUCAGAUCCUGGUGGAUCUGCGAAUCCUGCUGUAUAUCCC [U41A U49C A56G U67C U80C], the self-cleavage was 0.31.
In the case of UAACAGGGGGCCACAGCAGAAGCGUUCACGUCGCAGCCCCAGUCAGAUCCUGGUGGAUCUGCGAAUUCUGCUGUAUAUCCC [U41A U49C A56G U80C], the self-cleavage is reported as 0.25.
In the case of UAACAGGGGGCCACAGCAGAAGCGUUCACGUCGCAGCCCCAGUCAGAUCCUGGUGAAUCUGCGAGUUCUGCUGAAUAUCUC [U41A U49C A65G U74A], the self-cleavage is reported as 0.4.
Variant UAACAGGGGGCCACAGCAGAAGCGUUCACGUCGCAGCCCCAGUCAGAUCCUGGUGAAUCUGCGAAUUCUGCUGUAUAUCUA [U41A U49C C81A] has a self-cleavage of 0.19.
With UAACAGGGGGCCACAGCAGAAGCGUUCACGUCGCAGCCCCAGUCAGAUCCUGGUGAAUCUACGAACUCCGCUGUAUAUCUC [U41A U49C G61A U66C U69C] the self-cleavage was 0.07.
Work on UAACAGGGGGCCACAGCAGAAGCGUUCACGUCGCAGCCCCAGUCAGAUCCAGGUGAAGCAGCGAAUUCUGCUGUAUAUCUC [U41A U49C U51A U58G U60A] yielded a self-cleavage of 0.45.
In the case of UAACAGGGGGCCACAGCAGAAGCGUUCACGUCGCAGCCCCAGUCAGAUCCAGGUGAAUCUGCGAAUUCUGCUGUAUACCUC [U41A U49C U51A U78C], the self-cleavage is reported as 0.22.
In the case of UAACAGGGGGCCACAGCAGAAGCGUUCACGUCGCAGCCCCAGUCAGAUGCUGGUGAAUCUGCGAAUUCUGCUGUAUAUUUC [U41A U49G C79U], the self-cleavage is reported as 0.19.
In the case of UAACAGGGGGCCACAGCAGAAGCGUUCACGUCGCAGCCCCAGUCAGAUGCUGCUGAAUCCGCGAAUUCCGCUGUAUAUCUC [U41A U49G G53C U60C U69C], the self-cleavage is reported as 0.07.
With UAACAGGGGGCCACAGCAGAAGCGUUCACGUCGCAGCCCCAGUCAGAUGCUGGUGAAUCUGCGAAUUCUGCCGUAUAUCUC [U41A U49G U72C] the self-cleavage was 0.06.
UAACAGGGGGCCACAGCAGAAGCGUUCACGUCGCAGCCCCAGUCAGAUUCAGGUGACUCUGCGAAUUCUGCUGUAUAUCUC [U41A U51A A57C] gave a self-cleavage of 0.18.
In the case of UAACAGGGGGCCACAGCAGAAGCGUUCACGUCGCAGCCCCAGUCAGAUUCAGGUGAGUCUGCGAACUCUGCUGUAUAUCCC [U41A U51A A57G U66C U80C], the self-cleavage is reported as 0.08.
With UAACAGGGGGCCACAGCAGAAGCGUUCACGUCGCAGCCCCAGUCAGAUUCAGGUGAAUCUGCGGAUUCUGCUGUAUAUCUC [U41A U51A A64G] the self-cleavage was 0.24.
With UAACAGGGGGCCACAGCAGAAGCGUUCACGUCGCAGCCCCAGUCAGAUUCAGGUGAAUCUGCGUAUUCUGCUGUAUAUCUC [U41A U51A A64U] the self-cleavage was 0.13.
Variant UAACAGGGGGCCACAGCAGAAGCGUUCACGUCGCAGCCCCAGUCAGAUUCAGGUGAAUCUGCGAAUUCUGCUGUUUAUCAC [U41A U51A A75U U80A] has a self-cleavage of 0.37.
In the case of UAACAGGGGGCCACAGCAGAAGCGUUCACGUCGCAGCCCCAGUCAGAUUCAGGCGAAUCUGCGAGUUCUGCUGAAUAUCCC [U41A U51A U54C A65G U74A U80C], the self-cleavage is reported as 0.16.
Variant UAACAGGGGGCCACAGCAGAAGCGUUCACGUCGCAGCCCCAGUCAGAUUCAGGCGAAUCUGCGAAUUCUGCCGUAUAUCUC [U41A U51A U54C U72C] has a self-cleavage of 0.14.
With UAACAGGGGGCCACAGCAGAAGCGUUCACGUCGCAGCCCCAGUCAGAUUCAGGUGAAUCUGCGAAUUCCGCUGUAUAUCUC [U41A U51A U69C] the self-cleavage was 0.25.
UAACAGGGGGCCACAGCAGAAGCGUUCACGUCGCAGCCCCAGUCAGAUUCCGGUGGGCCUGCGGAUUCUGCUUUAUAUCUC [U41A U51C A56G A57G U58C A64G G73U] showed a self-cleavage of 0.04.
Work on UAACAGGGGGCCACAGCAGAAGCGUUCACGUCGCAGCCCCAGUCAGAUUCCGGUGAGUCUGCGGAUUCUGCUGUAUAUCUC [U41A U51C A57G A64G] yielded a self-cleavage of 0.12.

Reference: the RNAGym collection of RNA variant scans (doi:10.1093/nar/gkz1192)
